The whole screen tested about 360,000 compounds, of which about 25,000 (6.9%) were called active. This list was built around the results that the source calls inconclusive (neither active nor inactive); the mix of calls is not that of the screen. Calls follow the shape of the dose curve; as a rule, active = well fitted inhibition curve with a large enough effect; inconclusive = small, poorly fitted or top-dose-only effect; inactive = flat fitted curve, though single readings scatter. Where the call is inconclusive, the potency comes from a doubtful curve fit.
target: Luciferin 4-monooxygenase (Photinus pyralis) (UniProt P08659); test: qHTS profiling assay for firefly luciferase inhibitor/activator using purifed enzyme and Km concentrations of substrates (counterscreen for miR-21 project); details: purified FLuc, luminescence inhibition; activity change, negative = inhibition: at 57.5 µM (top of the series); also: nearly all actives have a fitted effect of over 55% in size;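 as to activity change, negative = inhibition: plate controls were vehicle for no effect and reference inhibitor for full effect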
UniProt P08659, sequence (P08659 whole entry, looked up): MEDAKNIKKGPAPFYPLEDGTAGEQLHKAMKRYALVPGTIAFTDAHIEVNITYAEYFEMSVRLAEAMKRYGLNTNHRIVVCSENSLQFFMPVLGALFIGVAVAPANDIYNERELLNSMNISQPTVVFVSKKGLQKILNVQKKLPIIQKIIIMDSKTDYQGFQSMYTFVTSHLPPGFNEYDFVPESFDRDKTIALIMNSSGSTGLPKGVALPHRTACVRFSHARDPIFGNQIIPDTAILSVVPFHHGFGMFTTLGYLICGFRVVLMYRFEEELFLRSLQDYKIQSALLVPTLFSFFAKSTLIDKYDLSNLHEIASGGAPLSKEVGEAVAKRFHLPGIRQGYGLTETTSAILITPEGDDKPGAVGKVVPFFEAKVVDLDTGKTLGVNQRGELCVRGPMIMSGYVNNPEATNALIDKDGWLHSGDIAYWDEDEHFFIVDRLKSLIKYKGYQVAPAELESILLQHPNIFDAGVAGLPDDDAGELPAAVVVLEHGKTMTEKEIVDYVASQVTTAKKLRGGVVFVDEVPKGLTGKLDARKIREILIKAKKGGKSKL
Method in brief: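 Biochemical qHTS of compounds, final roughly 60 µM downward over six points, against 10 nM purified firefly luciferase using Km concentrations of substrates (10 uM D-luciferin, 10 uM ATP) in Tris acetate pH 7.5 buffer; luminescence output.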
Potency is read from the fitted curve at half-maximal effect; tags tell the direction and shape of the fitted curve.

Row | Structure (SMILES) | activity change, negative = inhibition | Potency
1 | C=CCN=C(NC#N)SCc1ccccc1 | inactive: 3.92% | 
2 | O=C(O)CCc1ccc(-c2ccccc2)n1-c1cccc(Br)c1 |  | inconclusive: 13.5 µM [inhibitor, partial curve]
3 | O=C1c2ccccc2NC(c2ccc(-c3cccc(Cl)c3)o2)N1O (stereo unspecified) |  | active: 10.7 µM
4 | COc1cc(C(=O)N2CCCCCCC2)ccc1OC1CCN(C(C)=O)CC1 |  | inconclusive: 26.9 µM [inhibitor, partial curve, poor fit]
5 | O=C1c2ccccc2COc2ccc(O)cc21 |  | inconclusive: 21.3 µM [inhibitor, partial curve, poor fit]
6 | O=C(/C=C/NNC(=O)c1ccc(Cl)cc1)c1ccccc1 |  | inconclusive: 21.3 µM [inhibitor, single point]
7 | CCOC(=O)CC1C(=O)NCCN1C(=S)NC(=O)c1ccccc1OC (stereo unspecified) | inactive: 2.06% | 
8 | O=C(Nc1cc(Cl)ccc1N1CCOCC1)c1ccc2c(c1)OCCO2 |  | inconclusive: 23.9 µM [inhibitor, single point]
9 | CCn1cc(/C=C(\NC(=O)c2ccccc2Cl)C(=O)NCCN2CCOCC2)c2ccccc21 |  | active: 16.9 µM
10 | Cn1cc(S(=O)(=O)N2CCCCCC2)cc1C(=O)N1CCN(c2ccc(Cl)cc2)CC1 |  | inconclusive: 15.1 µM [inhibitor, partial curve]
11 | CO/N=C/C(C#N)=C/c1ccc(OC)cc1 |  | inconclusive: 26.9 µM [inhibitor, partial curve]
12 | Cc1nn(C)c2c1c(C(F)(F)F)cc(=O)n2C(C)C(=O)N1CCN(c2ccccc2)CC1 (stereo unspecified) | inactive: 6.81% | 
13 | O=C(c1ccc2c3c(cccc13)CC2)N1CCOCC1 | inactive: 0.355% | 
14 | O=C1CCC/C1=C/Nc1ccc2c(c1)OCO2 |  | active: 16.9 µM
15 | CN(C)S(=O)(=O)c1ccc(NC(=O)c2cc3ccccc3o2)cc1 |  | active: 15.1 µM
16 | Oc1nc(Nc2cccc(Cl)c2)sc1/C=C1\C=Nc2ccccc21 |  | inconclusive: 37.9 µM [inhibitor, partial curve, poor fit]
17 | COc1ccc(NC(=O)CN(c2ccc(F)cc2)S(=O)(=O)c2ccccc2)c(OC)c1 | inactive: 1.67% | 
18 | CCC(=O)N1CCc2nc(-c3ccccc3)sc2C1 |  | inconclusive: 19 µM [inhibitor, partial curve]
19 | O=C(Cn1nnc(-c2ccccc2)n1)OCc1ccccc1 |  | inconclusive: 37.9 µM [inhibitor, partial curve, poor fit]
20 | Cc1nnc(NC(=O)c2ccc3c(c2)C(=O)N(CC2CCCO2)C3=O)s1 (stereo unspecified) |  | active: 5.36 µM
21 | Cc1ccc(SCCC(=O)OCC(=O)NCC2CCCCC2)cc1 |  | inconclusive: 37.9 µM [inhibitor, partial curve, poor fit]
22 | Cc1ccc(C)c(S(=O)(=O)/N=C2\C=C(NS(=O)(=O)c3ccccc3)C(=O)c3ccccc32)c1 |  | inconclusive: 21.3 µM [inhibitor, single point]
23 | CCOC(=O)c1c(/N=C/c2ccc(C)cc2O)sc2c1CCN(C)C2 |  | inconclusive: 26.9 µM [inhibitor, partial curve, poor fit]
24 | COc1ccc(/C=C/c2nc(N)nc(-c3ccccc3O)n2)cc1 |  | inconclusive: 10.7 µM [inhibitor, partial curve]

Row | Structure (SMILES) | activity change, negative = inhibition | Potency
25 | COc1ccc(-c2cc(C(=O)Nc3ccc(S(=O)(=O)Nc4onc(C)c4C)cc3)c3ccccc3n2)cc1 |  | active: 9.53 µM
26 | O=C(COc1ccc2ccccc2c1)NC1CC1 |  | active: 16.9 µM
27 | O=S(=O)(Nc1nc2ccccc2nc1Cl)c1ccc2c(c1)OCCO2 |  | inconclusive: 26.9 µM [inhibitor, single point]
28 | CCc1ccc(NC(=O)CN2C(=O)CCSc3ccc(S(=O)(=O)N4CCCC4)cc32)cc1 | inactive: 2.18% | 
29 | COc1ccc2[nH]cc(C(=O)CN3CCC(C)CC3)c2c1 |  | inconclusive: 15.1 µM [inhibitor, partial curve]
30 | Cc1ccc(-n2cc(-c3ccccc3)c3c(N4CCOCC4)ncnc32)cc1 |  | inconclusive: 37.9 µM [inhibitor, partial curve, poor fit]
31 | CC(C)(C)OC(=O)NCCc1nnc(SCC(=O)c2ccc(Cl)cc2)o1 | inactive: 5.22% | 
32 | CNc1nc2c(C)cccn2c(=O)c1C=NCc1ccccc1 |  | inconclusive: 30.1 µM [inhibitor, partial curve, poor fit]
33 | N#Cc1ccc[n+](CC(=O)c2ccc(NC(=O)c3ccccc3)cc2)c1 |  | inconclusive: 42.6 µM [inhibitor, partial curve, poor fit]
34 | COc1ccc(N2C(=O)CC3(CCCC3)CC2=O)cc1 |  | inconclusive: 21.3 µM [inhibitor, single point]
35 | Cc1ccc(S(=O)(=O)Nc2ccc3c(c2)c(C(=O)OC(C)C)c(C)n3S(=O)(=O)c2ccc(C)cc2)cc1 | inactive: -0.999% | 
36 | COc1ccccc1N1C(=N)S/C(=C\c2ccc(-c3ccccc3C(=O)O)o2)C1=O |  | inconclusive: 33.8 µM [inhibitor, single point]
37 | O=S(=O)(Nc1ccc(Br)cc1)c1ccc2nc(-c3ccccc3)[nH]c2c1 |  | inconclusive: 26.9 µM [inhibitor, partial curve, poor fit]
38 | CC(C)n1nc(C(=O)OCC(=O)c2c[nH]c3ccccc23)c2ccccc2c1=O |  | inconclusive: 23.9 µM [inhibitor, partial curve]
39 | COc1cccc(NC(=O)c2ccc[n+](C)c2)c1 | inactive: 6.95% | 
40 | O=C(Nc1nnc(SCC(=O)N2CCOCC2)s1)c1ccccc1Cl |  | active: 8.49 µM
41 | CCOc1ccc(C(=O)/C=C/Nc2ccc(S(=O)(=O)Nc3onc(C)c3C)cc2)cc1 |  | active: 15.1 µM
42 | COc1ccc(Nc2nc(-c3cccnc3)nc3ccccc23)cn1 | inactive: 4.78% | 
43 | C=CCn1c(C)nc2c(sc3nc4c(cc32)COC(C)(C)C4)c1=O |  | active: 10.7 µM
44 | Clc1ccc(-n2nnc(-c3cccnc3Cl)n2)cn1 |  | active: 13.5 µM
45 | COc1ccc(NC(=O)c2cc(-c3cc(C)cc(C)c3O)n[nH]2)cc1Cl |  | inconclusive: 15.1 µM [inhibitor, partial curve]
46 | CC(C)CN(C(=O)CCC(=O)OCC(=O)NCCc1ccccc1)c1c(N)n(CC(C)C)c(=O)[nH]c1=O | inactive: -1.44% | 
47 | CCCCC(=O)N/N=C/c1sccc1C | inactive: -8.48% | 
48 | O=C(Nc1ccc(F)cc1)c1ccc2nc[nH]c2c1 |  | inconclusive: 30.1 µM [inhibitor, single point]

Row | Structure (SMILES) | activity change, negative = inhibition | Potency
49 | CC1CCCC(NC(=O)CNCc2ccccc2F)C1C (stereo unspecified) | inactive: -1.59% | 
50 | CCOC(=O)c1cccc(Nc2cc(C)nc(C)n2)c1 |  | inconclusive: 23.9 µM [inhibitor, partial curve]
51 | O=C1[C@@H]2Cc3c([nH]c4ccccc34)C(c3cccc([N+](=O)[O-])c3)N2C(=O)CN1C1CCN(Cc2ccccc2)CC1 (stereo partly specified) | inactive: -2.25% | 
52 | Cc1ccc(C2NC(=O)c3c(sc(C)c3C)N2)c(O)c1 (stereo unspecified) |  | inconclusive: 8.49 µM [inhibitor, partial curve]
53 | Oc1ccc(Nc2nc(-c3ccc(Cl)cc3)nc3ccccc23)cc1 |  | inconclusive: 33.8 µM [inhibitor, partial curve, poor fit]
54 | C/C(=N\NC(=O)C1CCCC1)c1ccc(C(C)C)cc1 |  | inconclusive: 21.3 µM [inhibitor, partial curve, poor fit]
55 | Cc1ccc(C(=O)c2sc3nsc(C)c3c2N)cc1 |  | active: 1.69 µM
56 | O=C(CSc1nc2c(oc3ccccc32)c(=O)[nH]1)Nc1cccc(Cl)c1 |  | active: 1.2 µM
57 | COc1ccccc1Nc1nc2ccccc2n2cnnc12 |  | inconclusive: 12 µM [inhibitor, partial curve]
58 | Cc1ccc(N=Nc2c(O)n(CN3CCOCC3)c3ccccc23)cc1 |  | active: 2.69 µM
59 | COc1ccc(/C=C2/SC(=O)N(CCNC(=O)C3CCCN3C(=O)c3cccs3)C2=O)cc1 (stereo unspecified) |  | inconclusive: 12 µM [inhibitor, single point]
60 | O=C(Nc1ccccc1C(=O)N1CCOCC1)c1noc2c1CCCC2 | inactive: -0.077% | 
61 | CC1SCC(=O)N(CC(=O)Nc2ccc3c(c2)OCCO3)C1=O (stereo unspecified) |  | inconclusive: 30.1 µM [inhibitor, single point]
62 | Cn1c(C(=O)N2CCC(C(=O)NCCc3ccc(S(N)(=O)=O)cc3)CC2)cc2sccc21 | inactive: -1.9% | 
63 | COc1ccc(-c2nc3scc(CCNS(=O)(=O)c4cccc(C(C)=O)c4)n3n2)cc1 |  | inconclusive: 23.9 µM [inhibitor, partial curve, poor fit]
64 | COc1ccccc1-c1nnc(SCc2nc3ccccc3s2)n1C |  | inconclusive: 26.9 µM [inhibitor, partial curve, poor fit]
65 | CC1CCCN(c2nc(N(C)c3ccccc3)nc(N)c2[N+](=O)[O-])C1 (stereo unspecified) |  | inconclusive: 30.1 µM [inhibitor, partial curve, poor fit]
66 | COC(=O)c1c(SCC(=O)Nc2ccccc2OC)[nH]c2ccccc2c1=O |  | inconclusive: 10.7 µM [inhibitor, partial curve]
67 | Cc1ccc(NC(=O)c2cc(-c3ccccc3)nn2-c2ccccc2)cc1 | inactive: -2.17% | 
68 | Cc1ccc(N2CC(NC(=O)/C=C\c3ccc4c(c3)OCO4)CC2=O)cc1 (stereo unspecified) | inactive: -0.25% | 
69 | CNS(=O)(=O)c1cccc(C(=O)OCC(=O)C23CC4CC(CC(C4)C2)C3)c1 |  | inconclusive: 26.9 µM [inhibitor, single point]
70 | Cc1c(C(=O)Nc2ccccc2N2CCN(C)CC2)oc2ccc(F)cc12 |  | inconclusive: 33.8 µM [inhibitor, partial curve, poor fit]
71 | Cc1ccc(-c2nnc(Nc3ccc(O)cc3)c3ccccc23)cc1S(=O)(=O)NCC1CCCO1 (stereo unspecified) |  | inconclusive: 13.5 µM [inhibitor, partial curve, poor fit]

Source: PubChem BioAssay AID588342 (National Center for Advancing Translational Sciences (NCATS), 2011)
